In PubChem BioAssay AID1865 (National Center for Advancing Translational Sciences (NCATS), 2009):
Screen size: about 280,000 compounds; about 540 (0.19%) were called active. Inconclusive means that the source gave no clear call. Such entries were picked first, then a sample of the others. Calls come from the whole dose curve; as a rule, active = well fitted activation curve with a large enough effect; inconclusive = small, poorly fitted or top-dose-only effect; inactive = flat fitted curve, though single readings scatter. Where the call is inconclusive, the potency comes from a doubtful curve fit.

Assay: Quantitative High-Throughput Screen for Regulators of Epigenetic Control; note: nearly all actives have a fitted effect of over 60% in size; for GFP activation: % of control where 0% means no effect
Conditions: murine LDR cells, GFP reporter derepression, 30 h; GFP activation: at 53.9 µM (top of the series)
Procedure, shortened: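 GFP-positive cell count by laser-scanning cytometry (objects 20–120 um) after 30 h, 37 C compound exposure of murine LDR cells; reporter is CMV-GFP integrated at a silenced locus, inducible by HDAC or DNMT inhibitors.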
Potency is the fitted concentration of half-maximal effect; tags give direction and shape of the fitted curve.

Row | SMILES | Potency | GFP activation
1 | COc1ccccc1Nc1cc(C(=O)NCc2cccnc2)c2ccccc2n1 | inconclusive: 11.2 µM [activator, partial curve] | 
2 | CCOC(=O)c1ccc(NC2=CC(c3ccc(O)c(OCC)c3)N(c3ccc(C(=O)OCC)cc3)C2=O)cc1 (stereo not given) | inconclusive: 31.6 µM [activator, single point] | 
3 | Cc1cccc(-c2nnc3sc(-c4ccccc4C)nn23)c1 |  | inactive: -1.12%
4 | COc1ccc(CNC(=O)CSc2ncc3c(n2)-c2cc(Cl)ccc2N(Cc2ccccc2)S3(=O)=O)cc1OC | active: 22.4 µM | 
5 | CC/C(=C/c1sc2ccc(C)cc2[n+]1CCCS(=O)(=O)[O-])SC |  | inactive: -0.334%
6 | CCNC(=S)N1CCN=C1Nc1nc(C)cc(C)n1 |  | inactive: -3.58%
7 | Cc1ccc2oc(-c3cc(NC(=O)c4ccc5c(c4)OCCO5)cc(C)c3O)nc2c1 | inconclusive: 35.5 µM [activator, single point] | 
8 | COC(=O)c1ccc(CSc2nc3ccccc3c(=O)n2-c2ccccc2)o1 | inconclusive: 14.1 µM [activator, single point] | 
9 | O=C/C(=C\Nc1ccccn1)c1nc2ccccc2o1 |  | inactive: 9.34%
10 | Cc1ccc(C)c(Cn2c(=O)n(Cc3ccc4c(c3)OCO4)c(=O)c3oc4ccccc4c32)c1 |  | inactive: 7.72%
11 | COc1ccccc1-c1cn[nH]c1-c1ccc(OCc2ccccc2)cc1O | inconclusive: 35.5 µM [activator, single point] | 
12 | Cc1cccc(NC(=O)c2sc3nc4c(cc3c2N)CN(Cc2ccccc2)CC4)c1 | inconclusive: 12.6 µM [activator, partial curve] | 
13 | S=C(Nc1ccccc1)Nc1nc2ccccc2n1CCOc1ccc(Cl)cc1 | inconclusive: 31.6 µM [activator, single point] | 
14 | CC(=O)/C(=N\Nc1cccc(Cl)c1)Sc1cccc2cccnc12 | inconclusive: 31.6 µM [activator, single point] | 
15 | COc1ccc(OC)c(S(=O)(=O)Nc2cc3c(C(C)=O)c(C)oc3c3ccccc23)c1 | inconclusive: 20 µM [activator, single point] | 
16 | N#C/C(=C\c1ccc(-c2ccc(F)cc2F)o1)c1nc2ccccc2[nH]1 | active: 7.94 µM | 
17 | S=C(NCCCN1CCOCC1)Nc1ccc(Nc2ccccc2)cc1 |  | inactive: 1.14%
18 | COc1ccc2nc3ccccc3nc2c1NC(=O)c1ccc(Cl)cc1 | inconclusive: 28.2 µM [activator, single point] | 
19 | CCn1c(SCC(=O)c2ccc(Cl)cc2)nnc1C(C)C | inconclusive: 35.5 µM [activator, single point] | 
20 | O=C(c1ccccc1)c1nn(-c2ccc(Cl)cc2)cc1C(=O)c1cc2ccccc2oc1=O | inconclusive: 8.91 µM [activator, partial curve] | 
